The target in assay [1] is T1, GFP-WIPI1a (UniProt Q5MNZ9).
T1 sequence: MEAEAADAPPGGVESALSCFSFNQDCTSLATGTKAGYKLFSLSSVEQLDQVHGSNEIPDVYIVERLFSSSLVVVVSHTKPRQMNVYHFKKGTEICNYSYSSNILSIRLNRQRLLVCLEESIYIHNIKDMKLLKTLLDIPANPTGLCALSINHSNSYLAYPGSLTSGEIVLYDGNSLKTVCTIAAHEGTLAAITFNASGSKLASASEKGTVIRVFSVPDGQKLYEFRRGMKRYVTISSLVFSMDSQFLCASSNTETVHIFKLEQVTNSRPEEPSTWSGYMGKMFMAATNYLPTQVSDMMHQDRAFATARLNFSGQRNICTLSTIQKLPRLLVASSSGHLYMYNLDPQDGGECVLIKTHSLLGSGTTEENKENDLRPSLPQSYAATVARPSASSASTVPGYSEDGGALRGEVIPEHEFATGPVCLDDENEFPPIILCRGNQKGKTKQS
Briefly: pull-down; GFP-tagged proteins expressed in HEK293A, isolated on GFP-TRAP, incubated with in vitro translated 35S-labeled FLAG-Atg16L1 constructs, washed; autoradiography; only the target purified.

Amino acid sequences for entries named in this document (tags omitted). A change or cut given only in a name is not applied to a line headed by its entry. Chains listed by the source or under a name are the forms on record and can include a tag or linker. Residues count along the entry.
UniProt Q8C0J2: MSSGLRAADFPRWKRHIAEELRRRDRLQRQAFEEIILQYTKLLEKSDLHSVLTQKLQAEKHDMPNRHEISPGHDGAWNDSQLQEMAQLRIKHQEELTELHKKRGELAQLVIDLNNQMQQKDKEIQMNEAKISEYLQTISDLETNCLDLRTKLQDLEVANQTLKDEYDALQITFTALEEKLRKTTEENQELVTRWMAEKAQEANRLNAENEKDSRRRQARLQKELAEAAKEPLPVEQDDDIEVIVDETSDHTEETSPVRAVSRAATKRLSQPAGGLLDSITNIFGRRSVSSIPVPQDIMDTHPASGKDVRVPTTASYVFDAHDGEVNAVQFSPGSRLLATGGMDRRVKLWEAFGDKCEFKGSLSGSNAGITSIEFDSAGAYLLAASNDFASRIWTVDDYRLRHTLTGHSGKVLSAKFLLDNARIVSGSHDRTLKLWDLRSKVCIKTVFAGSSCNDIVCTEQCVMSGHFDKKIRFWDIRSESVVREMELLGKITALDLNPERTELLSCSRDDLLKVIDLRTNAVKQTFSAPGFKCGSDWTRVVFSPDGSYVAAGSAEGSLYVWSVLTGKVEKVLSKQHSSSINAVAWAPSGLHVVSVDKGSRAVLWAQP
in vitro translated 35S-labeled FLAG-Atg16L1 1–265: residues 1-265 of Q8C0J2
in vitro translated 35S-labeled FLAG-Atg16L1 1–230: residues 1-230 of Q8C0J2
in vitro translated 35S-labeled FLAG-Atg16L1 1–207: residues 1-207 of Q8C0J2
FLAG-Atg16L1 full-length (FL) (Q8C0J2-3, form named): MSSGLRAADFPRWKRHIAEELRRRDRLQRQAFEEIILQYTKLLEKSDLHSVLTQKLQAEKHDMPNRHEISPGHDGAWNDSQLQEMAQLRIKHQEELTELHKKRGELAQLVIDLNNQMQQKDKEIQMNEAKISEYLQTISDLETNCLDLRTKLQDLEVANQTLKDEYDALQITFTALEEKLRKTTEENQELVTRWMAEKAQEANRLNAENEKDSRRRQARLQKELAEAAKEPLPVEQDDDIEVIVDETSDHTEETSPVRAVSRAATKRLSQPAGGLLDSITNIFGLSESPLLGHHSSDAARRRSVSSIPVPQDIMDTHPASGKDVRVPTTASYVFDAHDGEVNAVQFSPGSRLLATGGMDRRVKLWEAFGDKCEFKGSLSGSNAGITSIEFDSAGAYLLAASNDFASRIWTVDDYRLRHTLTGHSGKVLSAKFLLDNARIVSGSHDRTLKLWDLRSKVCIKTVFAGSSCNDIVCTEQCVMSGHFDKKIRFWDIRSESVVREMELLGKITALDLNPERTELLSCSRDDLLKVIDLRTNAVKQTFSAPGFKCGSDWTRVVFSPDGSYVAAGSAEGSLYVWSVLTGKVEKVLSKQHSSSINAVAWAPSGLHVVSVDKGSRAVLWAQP
FLAG-Atg16L1 E230R (not stated (human or mouse cDNA cloned)) (Q8C0J2-3, form named): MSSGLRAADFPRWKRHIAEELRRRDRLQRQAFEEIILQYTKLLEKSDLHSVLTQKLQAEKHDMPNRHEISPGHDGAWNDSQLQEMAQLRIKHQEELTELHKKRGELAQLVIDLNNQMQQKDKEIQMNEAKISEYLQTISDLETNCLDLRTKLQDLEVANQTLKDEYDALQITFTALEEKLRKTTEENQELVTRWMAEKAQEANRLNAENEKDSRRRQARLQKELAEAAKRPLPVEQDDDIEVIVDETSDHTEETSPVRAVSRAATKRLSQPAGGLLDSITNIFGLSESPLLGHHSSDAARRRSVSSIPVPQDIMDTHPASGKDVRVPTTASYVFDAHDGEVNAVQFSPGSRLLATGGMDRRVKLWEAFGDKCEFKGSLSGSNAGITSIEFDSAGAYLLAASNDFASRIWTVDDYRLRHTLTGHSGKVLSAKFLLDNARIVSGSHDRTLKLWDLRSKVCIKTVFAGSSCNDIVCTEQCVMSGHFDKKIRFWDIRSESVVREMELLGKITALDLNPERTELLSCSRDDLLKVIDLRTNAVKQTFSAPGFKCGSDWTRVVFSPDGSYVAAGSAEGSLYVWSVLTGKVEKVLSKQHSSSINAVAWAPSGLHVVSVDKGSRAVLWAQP
FLAG-Atg16L1 E226R (not stated (human or mouse cDNA cloned)) (Q8C0J2-3, form named): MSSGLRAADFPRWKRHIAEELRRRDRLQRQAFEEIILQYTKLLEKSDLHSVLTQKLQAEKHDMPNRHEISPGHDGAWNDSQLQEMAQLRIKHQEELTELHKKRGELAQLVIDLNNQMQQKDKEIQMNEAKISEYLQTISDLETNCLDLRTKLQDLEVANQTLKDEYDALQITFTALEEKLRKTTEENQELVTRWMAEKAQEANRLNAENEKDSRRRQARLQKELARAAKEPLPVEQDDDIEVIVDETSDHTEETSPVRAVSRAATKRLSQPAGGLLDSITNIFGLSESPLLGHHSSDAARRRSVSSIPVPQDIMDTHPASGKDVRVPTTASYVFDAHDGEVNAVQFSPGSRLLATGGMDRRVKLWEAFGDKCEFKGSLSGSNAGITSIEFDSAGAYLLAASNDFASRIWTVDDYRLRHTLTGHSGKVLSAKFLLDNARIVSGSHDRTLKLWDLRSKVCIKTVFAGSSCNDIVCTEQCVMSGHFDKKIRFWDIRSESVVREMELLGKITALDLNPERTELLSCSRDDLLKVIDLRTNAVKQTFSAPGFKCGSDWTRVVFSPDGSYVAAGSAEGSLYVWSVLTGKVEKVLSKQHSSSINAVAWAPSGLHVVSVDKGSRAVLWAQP
FLAG-Atg16L1 D212R (not stated (human or mouse cDNA cloned)) (Q8C0J2-3, form named): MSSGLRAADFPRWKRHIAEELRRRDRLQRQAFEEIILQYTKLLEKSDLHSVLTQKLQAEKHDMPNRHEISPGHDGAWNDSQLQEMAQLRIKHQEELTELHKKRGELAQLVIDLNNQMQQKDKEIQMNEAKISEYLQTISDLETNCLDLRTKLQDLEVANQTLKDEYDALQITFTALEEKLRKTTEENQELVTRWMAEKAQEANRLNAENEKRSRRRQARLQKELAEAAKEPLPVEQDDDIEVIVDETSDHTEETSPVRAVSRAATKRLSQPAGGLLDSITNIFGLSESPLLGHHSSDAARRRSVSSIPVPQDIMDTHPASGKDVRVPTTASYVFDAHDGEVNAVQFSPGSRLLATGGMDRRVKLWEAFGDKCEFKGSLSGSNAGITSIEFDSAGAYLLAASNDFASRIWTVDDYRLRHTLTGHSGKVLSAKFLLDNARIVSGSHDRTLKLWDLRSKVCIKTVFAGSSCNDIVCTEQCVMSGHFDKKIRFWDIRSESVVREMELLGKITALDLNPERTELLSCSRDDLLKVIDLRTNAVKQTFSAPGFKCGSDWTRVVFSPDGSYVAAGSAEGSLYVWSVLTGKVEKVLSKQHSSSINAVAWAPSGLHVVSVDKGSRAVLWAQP
FLAG-Atg16L1 E208R (not stated (human or mouse cDNA cloned)) (Q8C0J2-3, form named): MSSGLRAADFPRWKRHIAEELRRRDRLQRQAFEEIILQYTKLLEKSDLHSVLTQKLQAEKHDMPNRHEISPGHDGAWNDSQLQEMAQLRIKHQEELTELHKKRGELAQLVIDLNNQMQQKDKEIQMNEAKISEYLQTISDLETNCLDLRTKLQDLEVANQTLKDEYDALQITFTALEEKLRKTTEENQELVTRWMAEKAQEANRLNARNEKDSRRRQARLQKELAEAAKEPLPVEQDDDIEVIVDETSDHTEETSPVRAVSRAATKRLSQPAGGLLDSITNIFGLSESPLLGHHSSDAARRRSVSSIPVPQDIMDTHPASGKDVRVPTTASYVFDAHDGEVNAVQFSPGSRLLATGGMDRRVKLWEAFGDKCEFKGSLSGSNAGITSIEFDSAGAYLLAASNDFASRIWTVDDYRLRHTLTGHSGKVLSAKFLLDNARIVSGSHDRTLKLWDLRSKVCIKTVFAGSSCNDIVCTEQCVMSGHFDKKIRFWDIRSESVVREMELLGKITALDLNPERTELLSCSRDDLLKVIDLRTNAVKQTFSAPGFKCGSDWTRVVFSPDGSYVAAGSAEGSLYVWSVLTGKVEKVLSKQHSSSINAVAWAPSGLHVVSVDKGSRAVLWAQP
FLAG-Atg16L1 D237R D239R (DRDR) (not stated (human or mouse cDNA cloned)) (Q8C0J2-3, form named): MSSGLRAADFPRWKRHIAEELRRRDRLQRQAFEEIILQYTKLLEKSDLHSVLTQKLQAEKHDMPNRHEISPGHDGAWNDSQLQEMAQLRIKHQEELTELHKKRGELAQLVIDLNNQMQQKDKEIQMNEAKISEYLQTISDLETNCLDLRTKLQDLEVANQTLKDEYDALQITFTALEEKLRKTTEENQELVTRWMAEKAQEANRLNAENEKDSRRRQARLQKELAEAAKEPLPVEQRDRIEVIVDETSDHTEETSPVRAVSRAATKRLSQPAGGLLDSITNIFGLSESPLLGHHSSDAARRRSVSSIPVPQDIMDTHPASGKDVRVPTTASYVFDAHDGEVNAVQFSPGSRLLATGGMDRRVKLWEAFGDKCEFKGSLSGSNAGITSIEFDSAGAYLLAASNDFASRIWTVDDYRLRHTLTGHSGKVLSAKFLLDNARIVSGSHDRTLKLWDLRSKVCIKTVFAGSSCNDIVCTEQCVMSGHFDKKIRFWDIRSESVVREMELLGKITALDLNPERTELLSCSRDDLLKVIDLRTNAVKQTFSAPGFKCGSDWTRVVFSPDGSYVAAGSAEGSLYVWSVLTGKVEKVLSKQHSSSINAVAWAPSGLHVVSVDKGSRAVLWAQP
FLAG-Atg16L1 E226R E230R (ERER) (not stated (human or mouse cDNA cloned)) (Q8C0J2-3, form named): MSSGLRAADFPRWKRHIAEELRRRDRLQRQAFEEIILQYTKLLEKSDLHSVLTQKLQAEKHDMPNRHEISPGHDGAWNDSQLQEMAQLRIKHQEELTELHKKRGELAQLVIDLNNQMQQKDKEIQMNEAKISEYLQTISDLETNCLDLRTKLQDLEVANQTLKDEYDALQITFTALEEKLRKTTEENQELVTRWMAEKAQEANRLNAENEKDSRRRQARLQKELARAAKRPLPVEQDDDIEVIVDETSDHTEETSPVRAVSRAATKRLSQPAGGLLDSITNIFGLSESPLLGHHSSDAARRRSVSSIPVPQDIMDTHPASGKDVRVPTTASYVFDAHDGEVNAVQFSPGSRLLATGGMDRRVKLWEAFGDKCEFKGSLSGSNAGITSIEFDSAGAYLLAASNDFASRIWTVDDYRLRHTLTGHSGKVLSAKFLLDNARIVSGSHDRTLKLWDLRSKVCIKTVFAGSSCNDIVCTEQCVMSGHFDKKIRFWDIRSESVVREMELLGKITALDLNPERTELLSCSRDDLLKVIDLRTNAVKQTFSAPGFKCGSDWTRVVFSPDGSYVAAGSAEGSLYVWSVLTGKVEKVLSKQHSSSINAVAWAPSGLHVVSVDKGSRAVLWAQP
UniProt Q8TDY2: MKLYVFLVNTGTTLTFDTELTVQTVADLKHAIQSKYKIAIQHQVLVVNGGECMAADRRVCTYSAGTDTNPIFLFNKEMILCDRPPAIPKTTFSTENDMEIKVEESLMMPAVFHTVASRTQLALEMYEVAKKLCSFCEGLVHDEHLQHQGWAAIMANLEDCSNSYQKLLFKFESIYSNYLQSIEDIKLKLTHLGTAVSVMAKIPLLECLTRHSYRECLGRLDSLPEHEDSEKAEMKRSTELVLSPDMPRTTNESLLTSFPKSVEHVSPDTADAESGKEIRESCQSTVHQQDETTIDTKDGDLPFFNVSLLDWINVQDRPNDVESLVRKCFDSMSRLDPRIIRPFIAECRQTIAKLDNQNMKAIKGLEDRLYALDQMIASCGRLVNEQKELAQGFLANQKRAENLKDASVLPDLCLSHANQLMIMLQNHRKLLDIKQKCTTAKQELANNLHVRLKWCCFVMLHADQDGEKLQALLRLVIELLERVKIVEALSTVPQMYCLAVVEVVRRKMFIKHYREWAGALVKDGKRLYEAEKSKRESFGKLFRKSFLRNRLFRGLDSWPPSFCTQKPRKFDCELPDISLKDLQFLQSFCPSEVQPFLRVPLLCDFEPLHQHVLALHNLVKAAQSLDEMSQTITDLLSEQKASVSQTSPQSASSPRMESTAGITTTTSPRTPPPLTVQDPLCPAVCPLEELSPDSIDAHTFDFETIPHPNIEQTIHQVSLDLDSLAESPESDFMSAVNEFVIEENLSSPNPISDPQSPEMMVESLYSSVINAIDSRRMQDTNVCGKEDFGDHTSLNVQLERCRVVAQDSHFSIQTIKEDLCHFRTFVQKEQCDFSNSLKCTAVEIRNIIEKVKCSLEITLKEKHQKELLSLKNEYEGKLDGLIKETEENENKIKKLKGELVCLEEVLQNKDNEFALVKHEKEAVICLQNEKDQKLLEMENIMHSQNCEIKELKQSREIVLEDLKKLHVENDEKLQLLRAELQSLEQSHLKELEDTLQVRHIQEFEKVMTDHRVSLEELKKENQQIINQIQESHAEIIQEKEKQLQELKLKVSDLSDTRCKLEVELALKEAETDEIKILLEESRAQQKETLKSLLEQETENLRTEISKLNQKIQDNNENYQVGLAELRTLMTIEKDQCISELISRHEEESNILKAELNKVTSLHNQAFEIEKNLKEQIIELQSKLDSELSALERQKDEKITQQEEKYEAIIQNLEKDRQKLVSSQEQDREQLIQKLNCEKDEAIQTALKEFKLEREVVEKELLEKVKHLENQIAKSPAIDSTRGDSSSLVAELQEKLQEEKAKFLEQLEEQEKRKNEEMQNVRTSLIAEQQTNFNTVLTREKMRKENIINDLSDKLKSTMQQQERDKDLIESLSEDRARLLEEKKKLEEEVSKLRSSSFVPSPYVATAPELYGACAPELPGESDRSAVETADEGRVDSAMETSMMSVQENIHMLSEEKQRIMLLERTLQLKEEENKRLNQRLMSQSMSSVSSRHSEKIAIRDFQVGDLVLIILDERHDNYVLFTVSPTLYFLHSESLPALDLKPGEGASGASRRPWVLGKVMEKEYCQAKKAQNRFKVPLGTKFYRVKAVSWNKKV

For assay [2], the target named is T1, GFP-WIPI1a. Briefly: co-IP; lysates of HEK293A cells expressing GFP-tagged WIPI proteins mixed with lysates of HEK293A cells expressing FLAG-Atg16L1, its mutants or Atg16L2; GFP-TRAP; immunoblot.
Assay [3] deals with FLAG-Atg16L1 full-length (FL) (mouse) (UniProt Q8C0J2). The experiment in a line: co-IP; lysates of HEK293A cells transiently expressing FLAG-Atg16L2, FLAG-Atg16L1 or mutants; FLAG M2 agarose beads; endogenous FIP200 by immunoblot.
The target of assay [4] is FLAG-Atg16L1 E230R (not stated (human or mouse cDNA cloned)) (UniProt Q8C0J2). Described as above.
Assay [5] addresses FLAG-Atg16L1 E226R (not stated (human or mouse cDNA cloned)) (UniProt Q8C0J2). The description is as above.
Assay [6] addresses FLAG-Atg16L1 D212R (not stated (human or mouse cDNA cloned)) (UniProt Q8C0J2). The assay is described as above.
The target in the next assay is T2, FLAG-Atg16L2 (UniProt Q6KAU8).
T2 sequence: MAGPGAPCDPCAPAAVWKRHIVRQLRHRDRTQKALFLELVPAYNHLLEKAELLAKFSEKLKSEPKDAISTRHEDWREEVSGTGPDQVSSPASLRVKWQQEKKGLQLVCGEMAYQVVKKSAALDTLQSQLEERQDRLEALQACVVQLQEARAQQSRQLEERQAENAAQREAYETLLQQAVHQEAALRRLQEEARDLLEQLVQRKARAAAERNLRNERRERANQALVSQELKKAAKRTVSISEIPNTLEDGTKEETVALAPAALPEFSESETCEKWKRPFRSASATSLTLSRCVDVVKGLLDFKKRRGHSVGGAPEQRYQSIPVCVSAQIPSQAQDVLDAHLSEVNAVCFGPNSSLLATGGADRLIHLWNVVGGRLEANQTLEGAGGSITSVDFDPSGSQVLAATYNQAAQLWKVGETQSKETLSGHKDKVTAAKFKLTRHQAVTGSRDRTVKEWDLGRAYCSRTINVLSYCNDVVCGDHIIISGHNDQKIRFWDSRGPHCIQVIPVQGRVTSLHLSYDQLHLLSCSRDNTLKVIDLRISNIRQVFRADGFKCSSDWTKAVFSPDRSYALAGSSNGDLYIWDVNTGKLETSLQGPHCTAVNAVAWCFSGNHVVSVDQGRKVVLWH
The assay is described as above.

Assay [7] addresses FLAG-Atg16L1 E208R (not stated (human or mouse cDNA cloned)) (UniProt Q8C0J2). The description is as above.
Assay [8] has as its target FLAG-Atg16L1 full-length (FL) (mouse) (UniProt Q8C0J2). The experiment in a line: co-IP; HEK293 cells stably expressing GFP-WIPI2b, transiently transfected with FLAG-Atg16L1 WT, ERER or DRDR; bound and input by immunoblot; which tag was precipitated is not told. On the technique in general: A western blot detects proteins with antibodies after separation by electrophoresis.

For assay [9], the target named is FLAG-Atg16L1 D237R D239R (DRDR) (not stated (human or mouse cDNA cloned)) (UniProt Q8C0J2). The assay is described as above.
Assay [10] deals with FLAG-Atg16L1 E226R E230R (ERER) (not stated (human or mouse cDNA cloned)) (UniProt Q8C0J2). The description is as above.
The next assay deals with T3, GFP-WIPI4 (UniProt Q9Y484).
T3 sequence: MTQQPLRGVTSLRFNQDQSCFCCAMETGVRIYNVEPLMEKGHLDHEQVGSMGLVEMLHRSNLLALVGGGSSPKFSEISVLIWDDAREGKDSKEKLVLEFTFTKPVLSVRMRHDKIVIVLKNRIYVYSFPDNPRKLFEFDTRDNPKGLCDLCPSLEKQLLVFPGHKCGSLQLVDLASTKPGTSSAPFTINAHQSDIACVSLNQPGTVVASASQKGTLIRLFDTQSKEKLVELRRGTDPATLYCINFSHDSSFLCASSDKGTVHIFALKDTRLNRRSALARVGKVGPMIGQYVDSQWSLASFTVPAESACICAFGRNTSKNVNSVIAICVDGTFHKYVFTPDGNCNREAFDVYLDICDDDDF
Briefly: co-IP; GFP-Trap from lysates of HEK293A cells stably or transiently expressing GFP-tagged WIPI proteins; endogenous partners by immunoblot; full medium or EBSS 2 hr in Figure 1A.

Assay [11] addresses T1, GFP-WIPI1a. Described as above.

Results are given in words; binding and its absence hold for the method and conditions named. In cells and extracts the contact can be indirect. Some results given as binding are weak or reduced against the parent protein; the word gives no strength. For part of these data: Sequences can lack the tags named with a protein.

Regarding “in vitro translated 35S-labeled FLAG-Atg16L1 1–265 (from UniProt Q8C0J2-3 1-265) (domain or fragment)”, the binding result in the assay with GFP-WIPI1a [1] was “binds weakly”.

Take “FLAG-Atg16L1 full-length (FL) (from UniProt Q8C0J2-3 1-623)”: the binding result with GFP-WIPI1a [2] was “binds weakly”.

Take “endogenous FIP200 (HEK293A) (from UniProt Q8TDY2 1-1594)”: the binding result in assay [3] is reported as “binds”; in assay [4] it was “binds”; in assay [5], “binds”; in assay [6], “binds”; in the assay with FLAG-Atg16L2, “no binding”; in [7], “binds”. Besides, the binding result in [8] was “binds”; in [9], “no binding”; in assay [10], “binds”.

In the case of “endogenous Atg16L1 (HEK293A) (from UniProt Q676U5 1-607)”, the binding entry with GFP-WIPI4 and with GFP-WIPI1a [11] was “no binding” in each case.

“in vitro translated 35S-labeled FLAG-Atg16L1 1–207 (from UniProt Q8C0J2-3 1-207) (domain or fragment)”: the binding entry with GFP-WIPI1a [1] is “no binding”.

Turning to “in vitro translated 35S-labeled FLAG-Atg16L1 1–230 (from UniProt Q8C0J2-3 1-230) (domain or fragment)”, in the assay with GFP-WIPI1a [1], the binding entry is “binds”.

Source of the values: paper PMC4104028.
